Publication PMC4336329 (PLoS ONE, 2015)
About 14,000 (4.5%) of roughly 310,000 compounds showed an effect of 50% or more. The effect is printed as a negative number. The list shows a part of the results.

The compounds below were run against human ether-à-go-go-related gene (hERG) potassium channel (human, UniProt Q12809) (assay: primary screen, population patch clamp on CHO cells stably expressing hERG).
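Also: peak tail current of the secondary pulse compared with the same well before compound.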

Sequence of human ether-à-go-go-related gene (hERG) potassium channel (Q12809 whole entry, looked up): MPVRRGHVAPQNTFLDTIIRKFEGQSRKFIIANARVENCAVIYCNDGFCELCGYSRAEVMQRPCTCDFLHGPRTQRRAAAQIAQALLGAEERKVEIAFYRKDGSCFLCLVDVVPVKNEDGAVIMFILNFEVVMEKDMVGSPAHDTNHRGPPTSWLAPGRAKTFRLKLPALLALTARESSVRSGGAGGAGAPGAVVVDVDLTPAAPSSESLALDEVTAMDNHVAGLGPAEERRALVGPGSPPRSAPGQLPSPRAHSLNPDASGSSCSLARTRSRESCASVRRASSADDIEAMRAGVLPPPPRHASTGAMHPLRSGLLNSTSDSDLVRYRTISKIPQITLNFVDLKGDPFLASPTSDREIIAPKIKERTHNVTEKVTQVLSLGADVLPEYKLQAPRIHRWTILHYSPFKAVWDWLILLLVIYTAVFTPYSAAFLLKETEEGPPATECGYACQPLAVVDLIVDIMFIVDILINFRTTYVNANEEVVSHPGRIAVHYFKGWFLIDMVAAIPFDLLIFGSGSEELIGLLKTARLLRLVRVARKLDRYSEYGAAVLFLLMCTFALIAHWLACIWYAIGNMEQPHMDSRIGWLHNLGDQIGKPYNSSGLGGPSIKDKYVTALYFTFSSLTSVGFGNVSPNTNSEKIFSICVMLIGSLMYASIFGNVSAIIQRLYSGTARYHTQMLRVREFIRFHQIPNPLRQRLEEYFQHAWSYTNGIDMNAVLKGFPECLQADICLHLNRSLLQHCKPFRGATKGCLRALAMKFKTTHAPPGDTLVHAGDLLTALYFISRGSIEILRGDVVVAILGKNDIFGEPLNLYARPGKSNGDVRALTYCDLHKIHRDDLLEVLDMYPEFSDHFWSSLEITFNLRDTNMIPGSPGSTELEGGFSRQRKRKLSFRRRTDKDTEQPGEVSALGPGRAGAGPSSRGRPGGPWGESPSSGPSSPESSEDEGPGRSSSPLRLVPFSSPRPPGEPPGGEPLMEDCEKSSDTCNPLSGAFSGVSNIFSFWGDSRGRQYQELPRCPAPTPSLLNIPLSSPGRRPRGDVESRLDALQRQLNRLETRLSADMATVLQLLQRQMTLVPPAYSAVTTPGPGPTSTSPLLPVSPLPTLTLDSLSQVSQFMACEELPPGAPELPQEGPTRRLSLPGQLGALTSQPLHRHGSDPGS

SMILES | hERG current change (%, negative = inhibition) at 10uM
CCCCn1c(N)c(N(Cc2ccccc2OC)C(=O)CSCC(=O)Nc2cccc(C)c2)c(=O)[nH]c1=O | -7.33%
CS(=O)(=O)C1=C(O)C(=O)N(c2ccccc2)C1c1ccccc1 (stereo not shown) | 8.13%
O=C(NCC1COCCO1)C1CCN(S(=O)(=O)c2ccccc2)CC1 (stereo not shown) | -7.05%
O=C(c1csc2c1CCCC2)N1CCN(c2cccc(C(F)(F)F)c2)CC1 | -1.76%
CCC(=O)N1CCCc2cc(S(=O)(=O)N3CCN(c4ncccn4)CC3)ccc21 | 0.105%
CCn1c(SCC(=O)NC2CCCCC2)nnc1-c1cc2cccc(OC)c2o1 | -26%
COc1cc(NC(=O)c2cccs2)cc(OC)c1 | -3.13%
Cn1c(=O)n(C)c2cc(S(=O)(=O)Nc3cc(Cl)ccc3O)ccc21 | -6.04%
CCc1[nH]nc(C(=O)N2CCCC(C(=O)c3cccc(OC(C)C)c3)C2)c1C (stereo not shown) | 0.863%
COc1ccc(NC(=O)c2cc(-c3ccc(C)o3)nc3ccccc23)c(OC)c1 | 14.9%
Cn1c(NC(=O)c2cccs2)cc(=O)n(C)c1=O | 0.34%
O=C(Cn1cc(C(F)(F)F)cc(Cl)c1=O)NCc1ccc(F)cc1 | 11.2%
CCC1(c2ccc(F)cc2)NC(=O)N(CC(=O)N(C)C2CCS(=O)(=O)C2)C1=O (stereo not shown) | 1.62%
CC1CCC(NC(=O)C2CCC(CNS(=O)(=O)c3cccc4cccnc34)CC2)CC1 (stereo not shown) | 19.1%
COc1ccccc1CNS(=O)(=O)N(C)C | 10.5%
Cn1c(NCCO)nc2c1c(=O)n(Cc1cccc(Cl)c1)c(=O)n2C | 10.8%
Cc1ccccc1C(=O)NC(CC(C)C)C(=O)OCc1cc(=O)n2cc(Br)ccc2n1 (stereo not shown) | -27.2%
Cn1c(=O)c2c(ncn2CCN(CCO)Cc2ccccc2)n(C)c1=O | -2.06%
CC(C)OC(=O)C1C(=O)CC(C)(O)C(C(=O)OC(C)C)C1c1ccccc1 (stereo not shown) | 4.6%
COc1ccc(Cl)cc1NC(=O)Nc1ccc(Br)cn1 | 2.48%
O=C(Oc1ccc2c(=O)c(Oc3ccc4ccccc4c3)coc2c1)c1cccnc1 | -5.08%
NP(=O)(OCCCc1ccccc1)Oc1ccc(Cl)cc1 (stereo not shown) | -11.1%

SMILES | hERG current change (%, negative = inhibition) at 10uM
CCN(CC)S(=O)(=O)c1ccc(Oc2ccccc2)c(N)c1 | -36.9%
O=C(CC1S/C(=N/N=C/c2cccnc2)NC1=O)Nc1ccccc1 (stereo not shown) | 8.31%
Cn1c(NCC(O)c2ccccc2)nc2c1c(=O)n(Cc1ccc(Cl)cc1)c(=O)n2C (stereo not shown) | -10.7%
CCOc1ccc2nc(NC(=O)C3(C)CC3(Br)Br)sc2c1 (stereo not shown) | 0.3%
CCn1c(COc2ccccc2)nnc1SCc1ccc(C#N)cc1 | -54.1%
Cc1nc2ccc(S(=O)(=O)N(C)CC(=O)N3CCc4ccccc43)cc2s1 | -42.5%
COc1ccc(NC(=O)c2cc(-c3ccccc3)oc2C)cc1 | 2.65%
CC(NS(=O)(=O)c1ccc(F)cc1)C(c1cccs1)N1CCN(C)CC1 (stereo not shown) | 0.48%
CC1CCCCN1CCCNC(=O)CCCN1C(=O)c2cccnc2Sc2ccccc21 (stereo not shown) | 13.9%
COc1cc(-c2nc(S(=O)(=O)c3ccc(C)cc3)c(N(C)C)o2)cc(OC)c1OC | -9.21%
CN1CCN(C(=O)c2c(O)c3cccc4c3n(c2=O)CCC4)CC1.Cl | 6.48%
O=C(O)CCn1c(O)c(C=C2N=c3ccccc3=N2)sc1=S | 14.6%
CC1Sc2ccc(S(=O)(=O)N3CCC(C(=O)NCCc4ccccc4)CC3)cc2NC1=O (stereo not shown) | -16.5%
COc1cc2c(cc1OC)C(c1ccccc1)N(C(=O)c1ccccc1F)CC2 (stereo not shown) | -25.9%
Cc1c(CC(Cl)(Cl)Cl)c2c(n1O)CC(C)(C)CC2=O | 14.9%
Cc1cc(C)n2nc(SCC(=O)Nc3c(C)nn(-c4ccccc4)c3C)nc2n1 | 4.43%
Cc1c(-c2nc(-c3ccncc3)no2)cccc1[N+](=O)[O-] | 15.4%
CC(CN1CCOCC1)OC(=O)c1ccc2c(c1)OCCO2.Cl (stereo not shown) | 0.732%
O=C(NCCCn1ccnc1)c1c(F)cccc1F | 15.4%
Cc1cccc(N(Cc2ccccc2)C(=O)c2cc(S(=O)(=O)N3CCOCC3)ccc2F)c1 | -5.69%
CS(=O)(=O)N1CCN(C(=O)C(Sc2ccccc2)c2ccccc2)CC1 (stereo not shown) | -20%
COc1ccc(N2CC(O)=C(c3nc4ccccc4s3)C2=N)cc1 | 2.56%

SMILES | hERG current change (%, negative = inhibition) at 10uM
CC1(C)CC(=O)c2c(O)cc(OCc3ccc(Br)cc3)cc2O1 | 15.7%
Cc1ccc(NC(=O)CCNS(=O)(=O)c2ccc3[nH]c(=O)oc3c2)c(Cl)c1 | 4.51%
COc1cccc(NC(=O)C2C3CC4OC(=O)C2C4C3)c1 (stereo not shown) | 20.4%
C=CCNC(=O)c1c(CS(=O)(=O)c2ccccc2)noc1C(=O)NCc1ccccc1 | -2.89%
O=C(CSc1nc(=O)n2ccccc2n1)Nc1ccc2c(c1)OCO2 | -8.33%
COC(=O)c1ccccc1NC(=O)CSc1nnc(-c2ccoc2C)n1C | -27.5%
COc1ccc(/C=C(\C)c2nc(C)c(-c3ccccc3)c(=O)[nH]2)cc1 | 21.7%
COc1ccc(Cl)cc1C(=O)Nc1ccccc1N1CCN(C)CC1 | -79.3%
CC(NC(=O)c1cccc(N(C)C)c1)c1ccc(-n2ccnc2)cc1 (stereo not shown) | -68.3%
Cc1nonc1-c1csc(N)n1 | 18.5%
O=C(CSc1nc2ccccc2c(=O)n1-c1ccccc1)NCc1ccco1 | -15.1%
CN1CCN(c2ccc(NC(=O)c3sc4ccccc4c3Cl)cc2)CC1 | -0.959%
O=S(=O)(/C=C/c1ccccc1)NC1CCCCCCC1 | -4.53%
CCCC12CN3CCN(CC(C3)/C1=N\NC(=O)Nc1ccccc1)C2 | -5.84%
CCOc1ccc(NS(=O)(=O)c2ccc(OC)c(NC(=O)c3ccc4c(c3)OCCO4)c2)cc1 | -2.7%
O=C(COC(=O)c1ccccn1)NCc1ccccc1Cl | 9.9%
CC(C)(C)c1ccc(Cc2n[nH]c(=S)[nH]c2=O)cc1 | 3.29%
Cc1ccc(NC(=O)CN2C(=O)NC3(CCCCCCC3)C2=O)cc1C | -1.5%
Cc1nc(C)c(-c2ccc(SCC(=O)Nc3ccccc3)nn2)s1 | 6.28%
CCC1Oc2ccc(C)cc2N(CC(=O)N2CCCC2)C1=O (stereo not shown) | 23.2%
COc1ccc(NC(=O)c2cccc(Cn3cc(Br)cn3)c2)cn1 | -5.7%
Nc1ncnc2nc(SCc3ccc(Cl)cc3Cl)[nH]c12 | 8.62%

SMILES | hERG current change (%, negative = inhibition) at 10uM
COc1ccc(-n2nc(C(=O)NCC(=O)NCC3CCCO3)c3ccccc3c2=O)cc1Cl (stereo not shown) | -4.71%
Cc1cc(S(=O)(=O)NCC(C)C)ccc1OCC(=O)N1CCOCC1 | -2.34%
COC(=O)c1ccc(C2NC(C(=O)O)CS2)cc1 (stereo not shown) | 11.3%
CSCCC(NC(=O)C1CCC(C)CC1)C(=O)O (stereo not shown) | 16.6%
COc1ccc(OC)c(CCNC(=O)CS(=O)(=O)Cc2nc(-c3ccccc3Cl)oc2C)c1 | -14.1%
COc1ccc(NS(=O)(=O)c2ccc(NC(C)=O)cc2)cc1OC | 7.52%
CCC1CCCCN1CCCNC(=O)Cn1nc(-c2ccccc2)ccc1=O (stereo not shown) | 2.27%
COc1cc(NC(=O)COC(=O)c2cnc(C)cn2)c(C)cc1[N+](=O)[O-] | 16.9%
COC(=O)c1ccc(NC(=O)C(=O)NCC2CCCO2)cc1 (stereo not shown) | 26.2%
COc1ccc(C)cc1NS(=O)(=O)c1ccc2c(c1)N(C(C)=O)CCO2 | -13.7%
COc1ccc(C(=O)NC(=S)Nc2nc(C)cc(C)n2)cc1Br | 23.1%
CC(Sc1ccccc1)C(=O)N(CCC#N)Cc1cccnc1 (stereo not shown) | 6.64%
Cc1noc(C)c1CSc1nc2ccccc2n1C | 0.614%
COc1ccc(N2C(=O)CC(Sc3nc(C)cc(C)c3C#N)C2=O)cc1 (stereo not shown) | 8.43%
COc1ccc(OCCOC(=O)c2ccc(F)c(S(=O)(=O)N3CCOCC3)c2)cc1 | -13.8%
O=C(/C=C\NCC(=O)c1ccccc1)c1ccccc1 | -22.2%
CCN(C(=O)COC(=O)c1cccc(-n2cnnn2)c1)C1CCCCC1 | 4.55%
COc1ccc(Cl)cc1NC(=O)CN1C(=O)NC2(CCCC2)C1=O | 11.1%
COc1ccc(NC(=O)CSc2nnc(-c3ccco3)n2N)cc1Cl | -6.79%
Cc1ccc(C(=O)Nc2ccc(Oc3ccc(C(=O)O)c(C(=O)O)c3)cc2)cc1C | 2.57%
CCCCCCCCCOC(=O)C1N2C(=O)[C@@H](NC(=O)COc3ccccc3)[C@H]2SC1(C)C (stereo partly shown) | -2.03%
O=C(Nc1nc(-c2ccco2)cs1)c1ccccc1 | -2.84%
